Source: article PMC4336329 (PLoS ONE, 2015)
Among all 310,000 compounds or so, about 2,200 (0.71%) showed an effect of 50% or more. Effects have a minus sign here. Some of the results follow.

target: human ether-à-go-go-related gene (hERG) potassium channel (human, UniProt Q12809); test: primary screen, population patch clamp on CHO cells stably expressing hERG
Sequence (Q12809 whole entry, looked up): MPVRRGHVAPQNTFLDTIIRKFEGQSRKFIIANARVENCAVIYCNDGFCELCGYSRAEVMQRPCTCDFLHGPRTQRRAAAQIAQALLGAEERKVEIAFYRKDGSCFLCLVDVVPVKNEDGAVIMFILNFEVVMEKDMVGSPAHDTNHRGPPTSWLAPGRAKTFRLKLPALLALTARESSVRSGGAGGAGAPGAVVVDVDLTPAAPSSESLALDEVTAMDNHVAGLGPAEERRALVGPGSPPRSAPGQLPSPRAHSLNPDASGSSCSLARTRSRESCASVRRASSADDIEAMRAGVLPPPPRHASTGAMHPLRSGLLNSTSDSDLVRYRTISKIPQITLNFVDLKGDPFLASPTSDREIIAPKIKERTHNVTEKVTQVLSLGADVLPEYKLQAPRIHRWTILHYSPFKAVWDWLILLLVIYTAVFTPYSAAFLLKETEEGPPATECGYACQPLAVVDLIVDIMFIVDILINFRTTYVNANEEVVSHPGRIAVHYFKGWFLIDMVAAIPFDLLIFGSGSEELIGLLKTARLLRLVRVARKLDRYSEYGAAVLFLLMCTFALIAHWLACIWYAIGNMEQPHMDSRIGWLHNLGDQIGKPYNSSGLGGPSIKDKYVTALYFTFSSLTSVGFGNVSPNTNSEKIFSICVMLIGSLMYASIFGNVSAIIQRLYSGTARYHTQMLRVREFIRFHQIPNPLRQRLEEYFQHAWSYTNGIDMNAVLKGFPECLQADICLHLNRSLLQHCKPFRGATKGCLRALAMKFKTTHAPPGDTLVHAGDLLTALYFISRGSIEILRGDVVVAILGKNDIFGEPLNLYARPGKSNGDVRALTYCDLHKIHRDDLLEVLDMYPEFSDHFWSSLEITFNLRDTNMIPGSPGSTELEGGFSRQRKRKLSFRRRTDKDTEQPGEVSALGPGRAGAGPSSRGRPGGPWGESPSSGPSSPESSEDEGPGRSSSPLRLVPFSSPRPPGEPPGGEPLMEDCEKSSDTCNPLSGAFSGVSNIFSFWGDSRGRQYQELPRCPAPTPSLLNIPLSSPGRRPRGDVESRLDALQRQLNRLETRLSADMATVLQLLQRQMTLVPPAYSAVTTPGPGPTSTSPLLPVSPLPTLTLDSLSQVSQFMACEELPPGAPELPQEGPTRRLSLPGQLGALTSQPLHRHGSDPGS

| Structure (SMILES) | hERG current change (%, negative = inhibition) at 1uM [%] |
| --- | --- |
| CC1CN(Cc2ccccc2)c2nc3c(c(=O)[nH]c(=O)n3C)n2C1 (stereo not drawn) | 7.43 |
| CCCn1c(-c2ccc(F)cc2)cnc1SCC(=O)O | 13.4 |
| CCCn1nc(Oc2nc(NC(C)C)nc(N(C)C)n2)ccc1=O | 19 |
| O=C(c1ccc([N+](=O)[O-])cc1)N1CCN(C(=O)C2CCCCC2)CC1 | -1.12 |
| C=CCOc1c(Br)cc(/C=C2/C(=O)ON=C2C)cc1OC | 12.7 |
| c1ccn2c(SCc3cn4ccsc4n3)nnc2c1 | 2.67 |
| CC(C)n1c(N2CCN(C(=O)NCc3ccccc3)CC2)nc2ccccc21 | -24.4 |
| CC(C)CC(NC(=O)CCl)c1ccccc1 (stereo not drawn) | 2.74 |
| OCCC1CN(Cc2ccn[nH]2)CCN1Cc1ccc(F)c(F)c1 (stereo not drawn) | 8.07 |
| COCCCNC(=S)N(Cc1ccccc1)Cc1nc2ccccc2c(=O)[nH]1 | 4 |
| O=C(CNC(=O)Cc1ccccc1)NCC(=O)OCC(=O)c1ccccc1Cl | -0.783 |
| O=C(COC(=O)CSc1nnc(-c2ccc(Cl)cc2)o1)Nc1cc(Cl)ccc1Cl | 3.13 |
| O=C(CP(=O)(c1ccccc1)c1ccccc1)N1CCOCC1 | 6.14 |
| O=C(O)C1C2C=CC(C2)C1C(=O)NCc1ccco1 (stereo not drawn) | 7.88 |
| Cc1c(C(=O)Nc2cccc3cccnc23)oc2ccccc12 | 12.8 |
| Cc1ccc(NC(=S)Nc2ccc3cn[nH]c3c2)cc1C | -12.1 |
| C[C@@H](C(=O)Nc1ccccc1N1CCOCC1)N1C(=O)C2CC=CCC2C1=O (stereo partly drawn) | 12.5 |
| CCc1ccccc1NC(=O)CSc1nnc([C@H](CCSC)NC(=O)OC(C)(C)C)o1 | 2.24 |
| Cc1ccc(C(c2nnnn2C2CCCC2)N2CCN3CCCC3C2)cc1 (stereo not drawn) | -3.7 |
| COc1ccc(CC(=O)NNC(=S)Nc2ccccc2)cc1Cl | 6.48 |
| CCOC(=O)CSc1nnc(Cn2nnc3ccccc32)n1-c1ccc(F)cc1 | 5.76 |
| COc1ccc(/C=C/C(=O)OCC(=O)Nc2cccc(C(C)=O)c2)cc1 | 5.93 |
| O=C(O)c1sc2cc(Cl)ccc2c1Cl | 13.5 |

| Structure (SMILES) | hERG current change (%, negative = inhibition) at 1uM [%] |
| --- | --- |
| Cc1ccc(CCN2CC(C(=O)NCCC(C)C)CC2=O)cc1 (stereo not drawn) | 13.2 |
| O=C(NCCCN1CCOCC1)c1ccc(Br)s1 | -4.03 |
| Cc1ccccc1COc1ccc(/C=N/NC(=O)c2nnn(-c3nonc3N)c2CN2CCC(C)CC2)cc1 | 13.8 |
| CCOc1ccc(N(CC)C(=O)COc2cc(=O)n(CC)c3ccccc23)cc1 | -3.44 |
| COc1cc(/C=N/NC(=O)c2ccc3c(c2)OCCO3)c(Br)c(Br)c1O | 14.7 |
| CC(CCc1ccccc1)NC(=O)CSc1cccc[n+]1[O-] (stereo not drawn) | 9.99 |
| O=c1c2ccccc2nc2n1C(CBr)CS2 (stereo not drawn) | 12.4 |
| O=C(Nn1c(O)c(C=C2N=c3ccccc3=N2)sc1=S)c1cccc(Cl)c1 | 2.6 |
| CC1CC(C)(C)OC(C[N+]2(C)CCCCC2)O1.[I-] (stereo not drawn) | 16.1 |
| Cc1cccc(OCc2nnc3n2CCCCC3)c1 | 13.9 |
| O=C(O)Cn1cc(C(=S)N2CCOCC2)c2ccccc21 | -2.36 |
| CC/C(=C\C(=O)c1cccnc1)Nc1ccc(C)c(C)c1 | 11 |
| COc1ccc(Cl)c2sc(N3CCN(C(=O)c4ccco4)CC3)nc12 | -0.11 |
| CCOC(=O)c1ccc2c(c1)N(CC(=O)N1CCCC1)C(=O)C(C)(C)O2 | 2.6 |
| COC(=O)c1ccc(NC(=O)COc2ccc(N(C)S(=O)(=O)c3ccc(C)cc3)cc2)cc1 | 3.77 |
| CC(=O)Nc1cccc(-c2nc3ccccc3c(=O)o2)c1 | 16.6 |
| CCNS(=O)(=O)c1c(C)cc(C)c(N(C)S(=O)(=O)c2ccccc2)c1C | 6.53 |
| COc1ccc(S(=O)(=O)N(CC(=O)NC2CC2)c2ccc(C)cc2)cc1OC | 14.3 |
| COc1ccc(-c2nnn(CC(=O)N(Cc3ccc(F)cc3)C(C(=O)NC3CCCC3)c3ccc(F)cc3)n2)cc1 (stereo not drawn) | 13.1 |
| COc1ccc(NC(=O)CNc2cccc(C#N)c2)cc1Cl | 2.01 |
| CCCc1ccc(-c2csc(NC(=O)C3=COCCO3)n2)cc1 | 10.3 |
| CCOC(=O)C1(Cc2ccccc2Cl)CCN(C(=O)c2cnccn2)CC1 | 8.14 |
| Cc1ccc(Nc2cc(C)nc3nnnn23)cc1 | 5.08 |

| Structure (SMILES) | hERG current change (%, negative = inhibition) at 1uM [%] |
| --- | --- |
| O=C(Nc1cccnc1Cl)c1cc(-c2ccccc2O)on1 | 11.5 |
| C(=C\c1ccccc1)/CSc1nc2ncccc2[nH]1 | 15.8 |
| O=C(Nc1cccc(C(=O)O)c1)/C(=C\c1ccc2c(c1)OCO2)NC(=O)c1ccc(Br)o1 | 7.49 |
| O=C(CCCOc1ccc(Cl)cc1Cl)NCC1CCCO1 (stereo not drawn) | -0.378 |
| CCN(C(=O)COC(=O)c1cc(S(=O)(=O)N2CCc3ccccc32)ccc1OC)C1CCS(=O)(=O)C1 (stereo not drawn) | 9.92 |
| C#CCNC(=O)C1=C[C@H](c2cn(C(C)=O)c3ccccc23)C[C@H](OCc2ccc(CO)cc2)O1 | -3.97 |
| Cc1c(C(=O)OCC(=O)N(C)c2ccccc2)oc2ccccc12 | 3.25 |
| CN(C(=O)COC(=O)CNC(=O)c1sc2ccccc2c1Cl)c1ccccc1 | 8.54 |
| COCCNC(=O)C(=O)N/N=C(\C)CC(=O)Nc1cccnc1 | 11 |
| CC/C(=N\N=C(/CC)c1ccccc1N)c1ccccc1N | 5.48 |
| O=C(CSc1nc2ccccc2c(=O)[nH]1)Nc1ccccc1C(F)(F)F | 6.47 |
| Cc1cc(C(=O)Nc2ccccc2)oc1C | 16.1 |
| COc1ccc(-c2cc(C(F)(F)F)nc(SCC(=O)Nc3sc4c(c3C#N)CCC4)n2)cc1 | 10.4 |
| O=C1CCCN1c1ccc(S(=O)(=O)Nc2cccnc2)cc1 | 7.05 |
| CC1CCN(S(=O)(=O)N2CCC(C(=O)N3CCC(N(C)CC4CCCO4)CC3)CC2)CC1 (stereo not drawn) | 2.62 |
| CCOc1ccc(CCNC(=O)COC(=O)/C=C/c2cccc(OC)c2)cc1OCC | 13.4 |
| CCOC(=O)C[C@H]1c2ccccc2S(=O)(=O)N1Cc1cccc(C(F)(F)F)c1 | 6.93 |
| Brc1ccc(Oc2nnnn2-c2ccccc2)cc1 | 11 |
| COC(=O)c1noc(-c2ccc(OC)cc2)n1 | -7.05 |
| Cn1c(SCc2nc3ccccc3[nH]2)nnc1-c1ccccn1 | 9.14 |
| Cc1cc(C)cc(NC(=O)c2nnn(Cc3cc(C)ccc3C)c2N)c1 | -3.27 |
| CCc1nc(SCC(=O)Nc2ccc(F)cc2F)c2c(=O)n(C)c(=O)n(C)c2n1 | 14.6 |
| CCOC(=O)CN(C(=O)c1snc(C(N)=O)c1N)C(C(=O)NC1CCCCC1)c1ccc(F)cc1 (stereo not drawn) | 10.7 |

| Structure (SMILES) | hERG current change (%, negative = inhibition) at 1uM [%] |
| --- | --- |
| CCOc1ccc(NC(=O)c2c(NC(=O)CNCCN3CCOCC3)sc3c2CCC3)cc1 | -36.5 |
| O=C(OCC(=O)N1CCN(C(=O)COC(=O)c2ccc(O)cc2O)CC1)c1ccc(O)cc1O | 12.1 |
| CCC(C)[C@H](NC(=O)NCC1CCCO1)C(=O)OC (stereo partly drawn) | 14.5 |
| Cc1[nH]c2ccc(OC(F)(F)F)cc2c1CCNCc1ccc(Cl)cc1.O=C(O)C(=O)O | 6.01 |
| CCCOc1ccc(/C(O)=C2\C(=O)C(=O)N(CCCOC)C23C(=O)N(C)c2ccccc23)cc1 (stereo not drawn) | 15.8 |
| CCn1c(SCCC(=O)Nc2ccccc2)nnc1-c1ccc(OC)cc1 | 7.77 |
| COc1ccc(NC2CCCN(C(=O)CCC3=NNC(=O)CC3)C2)cc1 (stereo not drawn) | 8.47 |
| O=C(NCc1ccco1)c1sc2ccccc2c1Cl | 5.73 |
| Cc1nn(CCCC(=O)NCc2ccc(Cl)cc2)c(C)c1[N+](=O)[O-] | -3.11 |
| CC(C)(C)NCc1ccc(OCc2cccs2)cc1.Cl | 5.41 |
| C=CCN1C(=O)S/C(=C/c2ccc(Sc3nc4ccccc4[nH]3)o2)C1=O | 11.1 |
| O=C(Nc1ccc(C(=O)c2ccccc2)cc1)c1ccccc1 | 12 |
| CN(CC(=O)Nc1ccc(S(N)(=O)=O)cc1)C1CCCCC1 | 9.48 |
| Cc1cccc(C(=O)NN/C=C/C(=O)c2ccccc2)c1 | 6.9 |
| O=C(NC(=S)NCc1ccccc1)c1cccs1 | 14.5 |
| O=[N+]([O-])c1ccc(N2CCCCC2)nc1 | 7.55 |
| CCOC(=O)c1cccc(C2=CC(=O)C[C@H](c3ccc(OC)c(OC)c3)C2)c1 | 0.164 |
| Cl.O=C(NCCCNC(=O)c1cncc(O)c1)c1cncc(O)c1 | 17.1 |
| CC(C)NC(=O)Cc1ccc(Br)cc1 | 9.11 |
| COc1ccc(CN2CC[C@@H](N3CCOCC3)[C@H](O)C2)cc1F | 6.81 |
| COCC(=O)Nc1ccc(S(=O)(=O)Nc2nccs2)cc1 | 0.948 |
